{
  "source": "patent US7259004B1",
  "about": "“Endophytic streptomycetes from higher plants with biological activity” (Montana State University, priority 2002, dated 2007)",
  "key": {"[1]": {"system": "Staphylococcus aureus GISA, ATCC 700787", "assay": "microbroth dilution MIC", "type": "cell-based", "conditions": "Table 15"}, "[2]": {"system": "Staphylococccus simulans 11631", "assay": "microbroth dilution MIC", "type": "cell-based, Staphylococcus simulans", "conditions": "Table 15"}, "[3]": {"system": "Streptococcus pneumoniae ATCC 70676", "assay": "microbroth dilution MIC", "type": "cell-based", "conditions": "Table 15"}, "[4]": {"system": "B. subtilis 1A757", "type": "cell-based, Bacillus subtilis"}, "[5]": {"system": "human red blood cells"}, "[6]": {"system": "Protein synthesis in Bacillus subtilis", "assay": "macromolecular synthesis whole cell assay, [3H]amino acid mixture incorporation", "type": "cell-based", "conditions": "for % [3H]amino acid mixture (Protein synthesis) incorporation of that of the untreated culture: 1×MIC"}, "[7]": {"system": "Streptococcus pneumoniae ATCC 70674", "assay": "microbroth dilution MIC", "type": "cell-based", "conditions": "Table 15"}, "[8]": {"system": "E. faecalis 29212", "assay": "microbroth dilution MIC", "type": "cell-based, Enterococcus faecalis", "conditions": "Table 15"}, "[9]": {"system": "Human Cervical Cancer Epithelial ME180", "assay": "CellTiter 96 Aqueous Non-Radioactive Cell Proliferation Assay", "type": "cell-based", "conditions": "Table 12", "experimental": "(§1) The munumbicins were then tested against three human cancer cell lines (ATCC) and human primary mammary epithelial cells (HMECs) (Clonetics; Biowhittaker, Walkersville, Md.) using a CellTiter 96® Aqueous Non-Radioactive Cell Proliferation Assay kit from Promega (Madison, Wis.). The cell lines were A-549 (lung epithelial carcinoma, ATCC CCL-185), ME-180 (cervical epithelial epidermoid carcinoma, ATCC HTB-33), and BT-20 (breast epithelial cancer, ATCC HTB-19), and were grown in the media recommended by ATCC. The primary mammary cells were cultured as recommended by the manufacturer in mammary epithelial cell growth media (MEGM®). […] After seeding, the cells were incubated for five hours at 37° C. before addition of the munumbicins. Two-fold serial dilutions of the munumbicins were made in the culture medium, and a volume equal to that of the seeded cells for each dilution was added to three wells of cells. Each plate also contained some wells with cells plus medium only and some wells with medium only. […] The A-549 and ME-180 cells were incubated for 48 hours. […] The plates were incubated at 37° C. for one to four hours, and the OD490 was determined. The OD reading of all wells was corrected for background by subtracting the reading of wells containing medium only. […] Kakadumycin A was tested against three human cancer cell lines (ATCC) and human primary mammary epithelial cells using the procedure described above for the munumbicins. Kadadumycin B was tested against one human cancer cell line."}, "[10]": {"system": "Human Primary Mammary Epithelial HMEC", "assay": "CellTiter 96 Aqueous Non-Radioactive Cell Proliferation Assay", "type": "cell-based", "conditions": "Table 12", "experimental": "as §1"}, "[11]": {"system": "Human Lung Cancer Epithelial A549", "assay": "CellTiter 96 Aqueous Non-Radioactive Cell Proliferation Assay", "type": "cell-based", "conditions": "Table 12", "experimental": "as §1"}, "[12]": {"system": "E. faecium 49624", "assay": "microbroth dilution MIC", "type": "cell-based, Enterococcus faecium", "conditions": "Table 15"}, "[13]": {"system": "Staphylococccus aureus 27734", "assay": "microbroth dilution MIC", "type": "cell-based, Staphylococcus aureus", "conditions": "Table 15"}, "[14]": {"system": "RNA synthesis in Bacillus subtilis", "assay": "macromolecular synthesis whole cell assay, [3H]uridine incorporation", "type": "cell-based", "conditions": "for % [3H]uridine (RNA synthesis) incorporation of that of the untreated culture: 1×MIC"}, "[15]": {"system": "Streptococcus pneumoniae 49619", "assay": "microbroth dilution MIC", "type": "cell-based", "conditions": "Table 15"}, "[16]": {"system": "DNA synthesis in Bacillus subtilis", "assay": "macromolecular synthesis whole cell assay, [3H]thymidine incorporation", "type": "cell-based", "conditions": "for % [3H]thymidine (DNA synthesis) incorporation of that of the untreated culture: 1×MIC"}, "[17]": {"system": "Cell wall synthesis in Bacillus subtilis", "assay": "macromolecular synthesis whole cell assay, [3H]N-acetyl glucosamine incorporation", "type": "cell-based", "conditions": "for % [3H]N-acetyl glucosamine (Cell wall synthesis) incorporation of that of the untreated culture: 1×MIC"}, "[18]": {"system": "Enterococcus faecalis ATCC 51299 (VRE)", "assay": "microbroth dilution MIC", "type": "cell-based", "conditions": "Table 15"}, "[19]": {"system": "Listeria monocytogenes 19115", "assay": "microbroth dilution MIC", "type": "cell-based", "conditions": "Table 15"}, "[20]": {"system": "Staphylococcus aureus ATCC 33591 (MRSA)", "assay": "microbroth dilution MIC", "type": "cell-based", "conditions": "Table 15"}, "[21]": {"system": "S. aureus ATCC 6583P", "assay": "MIC with and without double stranded DNA", "type": "cell-based, Staphylococcus aureus"}, "[22]": {"system": "Shigella dysenteriae ATCC 11835", "assay": "microbroth dilution MIC", "type": "cell-based", "conditions": "Table 15"}, "[23]": {"system": "Listeria monocytogenes 19114", "assay": "microbroth dilution MIC", "type": "cell-based", "conditions": "Table 15"}, "[24]": {"system": "S. aureus 29213", "assay": "microbroth dilution MIC", "type": "cell-based, Staphylococcus aureus", "conditions": "Table 15"}, "[25]": {"system": "S. epidermis 12228", "assay": "microbroth dilution MIC", "type": "cell-based, Staphylococcus epidermidis", "conditions": "Table 15"}, "[26]": {"conditions": "DNA +, 20 micrograms per well of sheared salmon sperm DNA"}},
  "note": "Where two headings read alike, the source gives them in different places.",
  "data": [
    {"substance": "kakadumycin A", "values": [
      {"measurement": "MIC Staphylococcus aureus GISA, ATCC 700787", "setting": "[1]", "value": 0.5, "unit": "micrograms/ml"},
      {"measurement": "MIC Staphylococcus simulans ATCC 11631", "setting": "[2]", "value": 0.25, "unit": "micrograms/ml"},
      {"measurement": "MIC Streptococcus pneumoniae ATCC 70676", "setting": "[3]", "value": "<0.0325", "unit": "micrograms/ml"},
      {"measurement": "MIC B. subtilis 1A757", "setting": "[4]; [26]", "value": 4, "unit": "micrograms/ml"},
      {"measurement": "MIC B. subtilis 1A757", "setting": "[4]; DNA −", "value": 0.0625, "unit": "micrograms/ml"},
      {"measurement": "concentration causing detectable lysis of human red blood cells", "setting": "[5]", "value": "> 80", "unit": "micrograms/ml"},
      {"measurement": "effect on protein synthesis (in words)", "setting": "[6]", "value": "to a lesser extent"},
      {"measurement": "% [3H]amino acid mixture (Protein synthesis) incorporation of that of the untreated culture", "setting": "[6]; 5 min", "value": 71, "unit": "%"},
      {"measurement": "% [3H]amino acid mixture (Protein synthesis) incorporation of that of the untreated culture", "setting": "[6]; 10 min", "value": 53, "unit": "%"},
      {"measurement": "MIC Streptococcus pneumoniae ATCC 70674", "setting": "[7]", "value": "<0.0325", "unit": "micrograms/ml"},
      {"measurement": "MIC Enterococcus faecalis ATCC 29212", "setting": "[8]", "value": 0.062, "unit": "micrograms/ml"},
      {"measurement": "IC50 Human Cervical Cancer Epthelial ME180", "setting": "[9]", "value": 0.024, "unit": "micrograms/ml"},
      {"measurement": "IC50 Human Primary Mammary Epithelial HMEC", "setting": "[10]", "value": 0.009, "unit": "micrograms/ml"},
      {"measurement": "IC50 Human Lung Cancer Epithelial A549", "setting": "[11]", "value": 0.270, "unit": "micrograms/ml"},
      {"measurement": "MIC Enterococcus faecium ATCC 49624", "setting": "[12]", "value": 0.062, "unit": "micrograms/ml"},
      {"measurement": "MIC Staphylococcus aureus ATCC 27734", "setting": "[13]", "value": 0.125, "unit": "micrograms/ml"},
      {"measurement": "effect on RNA synthesis (in words)", "setting": "[14]", "value": "significantly inhibited"},
      {"measurement": "% [3H]uridine (RNA synthesis) incorporation of that of the untreated culture", "setting": "[14]; 5 min", "value": 42, "unit": "%"},
      {"measurement": "% [3H]uridine (RNA synthesis) incorporation of that of the untreated culture", "setting": "[14]; 10 min", "value": 38, "unit": "%"},
      {"measurement": "MIC Streptococcus pneumoniae ATCC 49619", "setting": "[15]", "value": "<0.0325", "unit": "micrograms/ml"},
      {"measurement": "effect on DNA synthesis (in words)", "setting": "[16]", "value": "no effect"},
      {"measurement": "% [3H]thymidine (DNA synthesis) incorporation of that of the untreated culture", "setting": "[16]; 5 min", "value": 96, "unit": "%"},
      {"measurement": "% [3H]thymidine (DNA synthesis) incorporation of that of the untreated culture", "setting": "[16]; 10 min", "value": 112, "unit": "%"},
      {"measurement": "effect on cell wall synthesis (in words)", "setting": "[17]", "value": "to a lesser extent"},
      {"measurement": "% [3H]N-acetyl glucosamine (Cell wall synthesis) incorporation of that of the untreated culture", "setting": "[17]; 5 min", "value": 65, "unit": "%"},
      {"measurement": "% [3H]N-acetyl glucosamine (Cell wall synthesis) incorporation of that of the untreated culture", "setting": "[17]; 10 min", "value": 55, "unit": "%"},
      {"measurement": "MIC Enterococcus faecalis VRE, ATCC 51299", "setting": "[18]", "value": 0.062, "unit": "micrograms/ml"},
      {"measurement": "MIC Listeria monocytogenes ATCC 19115", "setting": "[19]", "value": 0.25, "unit": "micrograms/ml"},
      {"measurement": "MIC Staphylococcus aureus MRSA, ATCC 33591", "setting": "[20]", "value": 0.5, "unit": "micrograms/ml"},
      {"measurement": "MIC S. aureus ATCC 6583P", "setting": "[21]; [26]", "value": 16, "unit": "micrograms/ml"},
      {"measurement": "MIC S. aureus ATCC 6583P", "setting": "[21]; DNA −", "value": 0.25, "unit": "micrograms/ml"},
      {"measurement": "MIC Shigella dysenteriae ATCC 11835", "setting": "[22]", "value": 4.0, "unit": "micrograms/ml"},
      {"measurement": "MIC Listeria monocytogenes ATCC 19114", "setting": "[23]", "value": 0.25, "unit": "micrograms/ml"},
      {"measurement": "MIC Staphylococcus aureus ATCC 29213", "setting": "[24]", "value": 0.25, "unit": "micrograms/ml"},
      {"measurement": "MIC Staphylococcus epidermidis ATCC 12228", "setting": "[25]", "value": 0.125, "unit": "micrograms/ml"}
    ]}
  ]
}
